Data on 28 compounds can be found in the antibiotic and cytotoxicity screens of Wong et al. (2023).

This is one part of the list.

In one test the test system is HSkMC. The experiment in a line: cytotoxicity call (relative viability < 0.9). To be noted: 10 µM.
The test system of another test is HepG2. Put plainly: cytotoxicity call (relative viability < 0.9). As to conditions: 10 µM.
Another test has as its system S. aureus RN4220. Put plainly: growth inhibition call (relative growth <= 0.2). As to conditions: 50 µM.

For the compound `COc1ccc(CN(C)C[C@@H]2OCCCC[C@H](C)Oc3ccc(NC(=O)CCC(F)(F)F)cc3C(=O)N([C@H](C)CO)C[C@H]2C)cc1`, the cytotoxicity call in the test with HSkMC and in the test with HepG2 was “inactive” in each case. In addition, the growth inhibition call in the test with S. aureus RN4220 was “inactive”.

As to `C[C@@H]1CN([C@@H](C)CO)C(=O)c2cc(NC(=O)CCC(F)(F)F)ccc2O[C@H]1CN(C)S(C)(=O)=O`, the cytotoxicity call in the test with HSkMC and in the test with HepG2 was “inactive” throughout. The growth inhibition call in the test with S. aureus RN4220 was “inactive”.

In the case of `C[C@H](CO)N1C[C@H](C)[C@H](CN(C)S(=O)(=O)c2cn(C)cn2)Oc2cc(C3=CCCC3)ccc2S1(=O)=O`, the cytotoxicity call with HSkMC and in the test with HepG2 was “inactive” in each case. Besides, the growth inhibition call in the test with S. aureus RN4220 is “inactive”.

With `CN(CC(N)=O)S(=O)(=O)c1ccc(F)cc1`, the cytotoxicity call in the test with HSkMC and in the test with HepG2 was “inactive” each time. Also, the growth inhibition call in the test with S. aureus RN4220 was “inactive”.

With `C[C@@H]1CCCCO[C@@H](CN(C)C)[C@H](C)CN([C@@H](C)CO)C(=O)c2cc(NC(=O)Nc3cccc4ccccc34)ccc2O1`, the cytotoxicity call in the test on HSkMC and in the test on HepG2 was “inactive” in each case. Further, the growth inhibition call in the test with S. aureus RN4220 was “inactive”.

For `C[C@@H]1CCCCO[C@H](CN(C)C(=O)Cc2ccccc2)[C@@H](C)CN([C@H](C)CO)C(=O)c2cc(NC(=O)CCC(F)(F)F)ccc2O1`, the cytotoxicity call in the test with HSkMC and in the test with HepG2 was “inactive” in each case. For the same compound, the growth inhibition call in the test with S. aureus RN4220 was “inactive”.

In the case of `COc1cccc(S(=O)(=O)Nc2ccc3c(c2)[C@H]2C[C@@H](CC(=O)NCc4cccc(F)c4)O[C@H](CO)[C@H]2O3)c1`, the cytotoxicity call in the test on HSkMC and in the test with HepG2 was “inactive” in each case. Moreover, the growth inhibition call in the test with S. aureus RN4220 is “inactive”.

On to `Cn1cnc(S(=O)(=O)N2CC[C@H](O)[C@@H]2Cc2cnn(C)c2)c1`, for which the cytotoxicity call with HSkMC and with HepG2 was “inactive” throughout. For the same compound, the growth inhibition call with S. aureus RN4220 is “inactive”.

As for `C[C@H]1CCCCO[C@@H](CN(C)Cc2ccccc2)[C@@H](C)CN([C@@H](C)CO)C(=O)c2cc(NC(=O)c3ccncc3)ccc2O1`, the cytotoxicity call in the test with HSkMC and in the test on HepG2 was “inactive” in each case. Moreover, the growth inhibition call with S. aureus RN4220 is “inactive”.

Regarding `Cc1ccc(S(=O)(=O)N(C)C[C@H]2Oc3ccc(NS(=O)(=O)c4c(C)noc4C)cc3C(=O)N([C@H](C)CO)C[C@H]2C)cc1`, the cytotoxicity call in the test with HSkMC and in the test on HepG2 was “inactive” each time. In addition, the growth inhibition call in the test on S. aureus RN4220 is “inactive”.

Turning to `COc1cccc(S(=O)(=O)N(C)C[C@H]2Oc3cc(C#CCN(C)C)ccc3S(=O)(=O)N([C@@H](C)CO)C[C@H]2C)c1`, the cytotoxicity call in the test on HSkMC and with HepG2 was “inactive” each time. For the same compound, in the test with S. aureus RN4220, the growth inhibition call was “inactive”.

On to `Cc1ccc(S(=O)(=O)Nc2cccc3c2O[C@@H](CN(C)S(C)(=O)=O)[C@@H](C)CN([C@@H](C)CO)C3=O)cc1`, for which the cytotoxicity call in the test on HSkMC and in the test on HepG2 was “inactive” each time. Further, the growth inhibition call in the test with S. aureus RN4220 was “inactive”.

For `COc1cccc(CNC(=O)c2cc3c(c(-c4cccc(-c5cccc(C#N)c5)c4)n2)[C@@H](CCO)N([S@](=O)C(C)(C)C)C3)c1`, the cytotoxicity call with HSkMC and in the test on HepG2 was “inactive” throughout. For the same compound, the growth inhibition call in the test on S. aureus RN4220 is “inactive”.

Regarding `Cc1ccc(S(=O)(=O)N(C)C[C@@H]2Oc3ccc(NS(=O)(=O)c4ccc(F)cc4)cc3C(=O)N([C@H](C)CO)C[C@@H]2C)cc1`, the cytotoxicity call in the test with HSkMC and in the test on HepG2 was “inactive” in each case. The growth inhibition call with S. aureus RN4220 is “inactive”.

For the compound `Cc1noc(C)c1NC(=O)N(C)C[C@@H]1Oc2c(NC(=O)C3CC3)cccc2C(=O)N([C@H](C)CO)C[C@@H]1C`, the cytotoxicity call in the test with HSkMC and with HepG2 was “inactive” each time. In addition, the growth inhibition call with S. aureus RN4220 is “inactive”.

As for `O=C(O)C1CN(C(=O)c2cnccn2)C1`, the cytotoxicity call in the test on HSkMC and with HepG2 was “inactive” each time. In the test on S. aureus RN4220, the growth inhibition call is “inactive”.

On to `C[C@H](CO)N1C[C@H](C)[C@@H](CN(C)S(C)(=O)=O)Oc2ccc(NS(=O)(=O)c3cn(C)cn3)cc2C1=O`, for which the cytotoxicity call with HSkMC and in the test with HepG2 was “inactive” in each case. In the test on S. aureus RN4220, the growth inhibition call was “inactive”.

For the compound `COc1ccc(NC(=O)N(C)C[C@H]2OCCCC[C@@H](C)Oc3ccc(NS(=O)(=O)c4ccccc4)cc3C(=O)N([C@H](C)CO)C[C@@H]2C)cc1`, the cytotoxicity call with HSkMC and with HepG2 was “inactive” in each case. The growth inhibition call with S. aureus RN4220 was “inactive”.

In the case of `C=CCOC(=O)[C@@H]1[C@H]2C(=O)O[C@H](c3ccccc3)[C@H](c3ccccc3)N2[C@H](c2ccc(OCCOC(=O)[C@@H]3C[C@@H]4C(=O)N5CCC[C@H]5C(=O)N4[C@@H]3c3cccc(OCCO)c3)cc2)[C@@]12C(=O)Nc1ccc(I)cc12`, the cytotoxicity call in the test with HSkMC and with HepG2 was “inactive” throughout. In the test on S. aureus RN4220, the growth inhibition call is “inactive”.

Take `C[C@@H]1CN([C@@H](C)CO)C(=O)c2cc(C#CCC3CCCC3)cnc2O[C@H]1CN(C)C(=O)c1cnccn1`: the cytotoxicity call in the test on HSkMC and in the test with HepG2 was “inactive” throughout. Also, the growth inhibition call in the test with S. aureus RN4220 is “inactive”.

On to `CO[C@H](CN(C)C(=O)C1CCOCC1)[C@@H](C)CN(C(=O)Nc1ccc(C(F)(F)F)cc1)[C@H](C)CO`, for which the cytotoxicity call in the test on HSkMC and in the test on HepG2 was “inactive” throughout. Further, the growth inhibition call with S. aureus RN4220 was “active”.

In the case of `Cc1ccccc1S(=O)(=O)N1C[C@@H](O)COC[C@@H]2O[C@@H](CC(=O)N3CCN(C)CC3)CC[C@H]21`, the cytotoxicity call with HSkMC and with HepG2 was “inactive” each time. The growth inhibition call with S. aureus RN4220 is “inactive”.

Regarding `O=C(COCc1nnn2c1CNCCC2)N1CCCC1`, the cytotoxicity call in the test on HSkMC and in the test with HepG2 was “inactive” throughout. In addition, in the test with S. aureus RN4220, the growth inhibition call is “inactive”.

Turning to `CCOC(=O)N(C)C[C@H]1OCc2cnnn2CCCC(=O)N([C@H](C)CO)C[C@@H]1C`, the cytotoxicity call in the test with HSkMC and in the test with HepG2 was “inactive” in each case. Moreover, in the test with S. aureus RN4220, the growth inhibition call was “inactive”.

As to `COc1cccc(NC(=O)N(C)C[C@H]2Oc3ncc(C#Cc4ccncc4)cc3C(=O)N([C@H](C)CO)C[C@@H]2C)c1`, the cytotoxicity call in the test on HSkMC and with HepG2 was “inactive” throughout. The growth inhibition call in the test with S. aureus RN4220 was “inactive”.

As for `CC(=O)NC(Cc1ccccc1)C(=O)O` (centres undefined), the cytotoxicity call in the test on HSkMC (human skeletal muscle cells) and in the test on HepG2 was “inactive” throughout. Besides, the growth inhibition call with S. aureus RN4220 is “inactive”.

On to `O=C(N[C@@H]1CC[C@H](CC(=O)N2CCOCC2)O[C@H]1CO)c1ccccn1`, for which the cytotoxicity call in the test with HSkMC and in the test on HepG2 was “inactive” in each case. Also, the growth inhibition call with S. aureus RN4220 is “inactive”.

For `CC(C)CC#Cc1ccc2c(c1)O[C@H](CN(C)C(=O)c1cccnc1)[C@H](C)CN([C@@H](C)CO)S2(=O)=O`, the cytotoxicity call with HSkMC and with HepG2 was “inactive” each time. In addition, the growth inhibition call in the test on S. aureus RN4220 was “inactive”.
